# Article PMC4336329 (PLoS ONE, 2015)
# Screen size: about 310,000 compounds; about 2,200 (0.71%) showed an effect of 50% or more. The effect is printed as a negative number. This is one part of the list.
# Molecular target: human ether-à-go-go-related gene (hERG) potassium channel (human, UniProt Q12809)
# Assay: primary screen, population patch clamp on CHO cells stably expressing hERG
# Chain of human ether-à-go-go-related gene (hERG) potassium channel (Q12809 whole entry, looked up): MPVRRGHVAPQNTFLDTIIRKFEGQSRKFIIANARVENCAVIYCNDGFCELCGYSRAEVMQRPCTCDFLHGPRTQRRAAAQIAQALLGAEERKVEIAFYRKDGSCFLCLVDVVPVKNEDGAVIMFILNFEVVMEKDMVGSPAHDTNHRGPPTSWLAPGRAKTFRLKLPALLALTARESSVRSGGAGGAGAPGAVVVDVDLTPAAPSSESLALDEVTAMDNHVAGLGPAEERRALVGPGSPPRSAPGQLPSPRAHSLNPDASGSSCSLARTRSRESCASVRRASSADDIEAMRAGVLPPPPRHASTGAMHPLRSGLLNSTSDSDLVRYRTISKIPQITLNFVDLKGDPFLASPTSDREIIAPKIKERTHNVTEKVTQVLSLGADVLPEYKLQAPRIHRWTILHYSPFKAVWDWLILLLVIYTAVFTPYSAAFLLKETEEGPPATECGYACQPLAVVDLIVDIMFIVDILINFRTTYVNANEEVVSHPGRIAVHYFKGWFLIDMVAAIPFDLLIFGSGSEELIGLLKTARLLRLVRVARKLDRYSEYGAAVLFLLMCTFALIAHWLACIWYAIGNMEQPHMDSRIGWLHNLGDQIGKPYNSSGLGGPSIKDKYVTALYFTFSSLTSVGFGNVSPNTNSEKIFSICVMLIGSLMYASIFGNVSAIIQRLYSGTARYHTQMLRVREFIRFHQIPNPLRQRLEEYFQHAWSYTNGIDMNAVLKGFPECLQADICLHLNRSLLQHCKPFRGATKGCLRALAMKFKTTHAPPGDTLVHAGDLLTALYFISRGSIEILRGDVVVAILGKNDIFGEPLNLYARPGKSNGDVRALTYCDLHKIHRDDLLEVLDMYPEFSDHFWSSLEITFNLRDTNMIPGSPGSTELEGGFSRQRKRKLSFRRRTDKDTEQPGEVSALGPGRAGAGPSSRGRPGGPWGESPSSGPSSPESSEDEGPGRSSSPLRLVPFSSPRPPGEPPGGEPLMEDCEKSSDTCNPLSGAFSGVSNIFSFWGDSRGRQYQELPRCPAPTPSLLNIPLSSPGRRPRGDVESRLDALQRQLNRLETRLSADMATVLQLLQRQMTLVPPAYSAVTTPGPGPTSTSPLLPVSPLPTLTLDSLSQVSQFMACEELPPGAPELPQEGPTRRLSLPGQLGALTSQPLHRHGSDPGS
row,SMILES,"hERG current change (%, negative = inhibition) at 1uM"
1,CN(C)/C=C/C(=C\C(=O)C(F)(F)F)Nc1ccc(C(F)(F)F)cc1,10.7%
2,O=C(Nc1ccc(Cl)cn1)c1ccc(-c2cc(Cl)ccc2Cl)o1,4.99%
3,O=C(CN1CCOCCOCCOCC1)Nc1ccccc1,6.76%
4,Cc1cccc(N(C(=O)CCC(=O)Nc2cc(C)on2)C(C(=O)NC2CCCC2)c2ccc(C)o2)c1 (centres unmarked),16.4%
5,CCOC(=O)Cc1nnc(Nc2cccc(C)c2)c2ccccc12,-3.65%
6,O=C(CN1CCOCC1)Nc1c2c(nc3c1CCC3)CCC2.O=C(O)C(=O)O,9.72%
7,COc1ccc(S(=O)(=O)Nc2c(C(=O)O)[nH]c3ccccc23)c(OC)c1,-1.45%
8,Cn1nnc(C(O)CN2CCOCC2)n1 (centres unmarked),-0.767%
9,O=C(Nc1ccccc1Br)C1CCC(=O)N1Cc1ccccc1Cl (centres unmarked),8.66%
10,COc1ccc2c(c1OC)C(=O)N(c1ccc3c(c1)CCC3)C2=O,8.52%
11,NC(=O)COC(=O)c1cccc(S(=O)(=O)N2CCN(c3ccc(F)cc3)CC2)c1,18.7%
12,COc1ccc(/C=N/n2c(-c3n[nH]c4c3CCC4)n[nH]c2=S)c(OC)c1OC,23%
13,O=C(O)CCNS(=O)(=O)c1ccc2ccccc2c1,14.1%
14,O=C1Nc2cc(S(=O)(=O)N3CCCC3)ccc2N2CCCC12 (centres unmarked),13.2%
15,Cc1cc(Br)ccc1NC(=O)CNC(=O)CN1C(=O)NC2(CCCCCC2)C1=O,12.3%
16,CC(NC(=O)Cc1ccc([N+](=O)[O-])cc1)c1ccc2c(c1)OCO2 (centres unmarked),5.62%
17,CCOC(=O)C1=C(C)OC(N)=C(C(=O)OCC)[C@@]12C(=O)N(CC(N)=O)c1ccccc12,5.57%
18,COc1cc2c(cc1OC)C(COc1ccc(F)cc1)N(C(C)=O)CC2 (centres unmarked),14.3%
19,CCN(CC)C(=O)Cn1cc(/C=C2\C(=O)NC(=O)N(c3ccccc3F)C2=O)c2ccccc21,13.6%

row,SMILES,"hERG current change (%, negative = inhibition) at 1uM"
1,O=S(=O)(Nc1ccc2nc(C(F)(F)F)[nH]c2c1)c1ccccc1,12.1%
2,O=C(/C=C/c1ccco1)Nc1ccc(Oc2ccc(Cl)cc2)cc1,12.8%
3,COc1ccc(CCNC(=O)C23CCC(C)(C(=O)O2)C3(C)C)cc1OC (centres unmarked),6.15%
4,CN(CC(=O)Nc1cccc(F)c1)C(=O)c1cccc(N2C(=O)CCC2=O)c1,10.4%
5,CCC(=O)N1CCc2cc(S(=O)(=O)NCCC(=O)NCc3ccccc3OC)ccc21,10.7%
6,CCOc1ccccc1CN1CCN(S(=O)(=O)CC)CC1.O=C(O)C(=O)O,17%
7,CC12CCC(C(=O)Nc3cccc(Cl)c3Cl)([C@H](Br)C1=O)C2(C)C (some centres unmarked),8.9%
8,CCOc1ccc(N2C(=O)/C(=C/c3ccccc3OCC(=O)OC)N(CC(=O)OC)C2=S)cc1,9.51%
9,O=C(O)/C=C/C(=O)NNC(=O)c1cccc(Br)c1,6.81%
10,CC(=O)Nc1cccc(C(=O)N(CCc2ccccc2)Cc2ccccc2)c1,10.2%
11,Cc1ccc(S(=O)(=O)N2CCC(C(=O)OCC(=O)NC(C)c3ccc(F)cc3)CC2)cc1C (centres unmarked),2.85%
12,Nc1sc(-c2ccccc2)c(Cc2ccccc2)c1C(=O)O,11.5%
13,O=C(CSc1nc2cc(Cl)ccc2o1)NCCc1ccccc1,6.91%
14,CC(C)(C)C1CCC(C(=O)OCC(=O)N2CCOCC2)CC1 (centres unmarked),7.13%
15,Cc1noc(C)c1CCC(=O)N1CCCC(N2CCN(c3ccc(F)cc3)CC2)C1 (centres unmarked),-14.9%
16,CCc1c(C(=O)NNC(=S)NCC2CCCO2)csc1C (centres unmarked),0.898%
17,O=C(Nc1cccnc1)C12CC3CC(CC(C3)C1)C2,1.77%
18,COc1cccc(N(CC(=O)NC2CCCC2)C(=O)CCCC(=O)Nc2ccccn2)c1,11.6%
19,Cc1cccc(N2C(=S)NC3c4ccccc4OC2(C)C3C(=O)N(C)C)c1 (centres unmarked),4.98%

row,SMILES,"hERG current change (%, negative = inhibition) at 1uM"
1,CCOC(=O)N1CCN(C(=O)c2ccc3nc(C)sc3c2)CC1,9.35%
2,CSc1ccc(C2NC(=O)c3c(sc4c3CCN(C)C4)N2)cc1 (centres unmarked),-23.7%
3,Clc1ccc(-c2nc3ccccc3[nH]2)cn1,12.8%
4,CCO.Cn1c2c(c(=O)n(C)c1=O)C1(C(=O)Nc3ccccc31)C(C#N)=C(N)O2 (centres unmarked),11.8%
5,Cn1c(=O)n(C)c2cc(S(=O)(=O)N3CCCc4ccccc43)ccc21,-9.22%
6,CCOC(=O)CC(=O)CSc1nc2c(cc1C#N)CCCCC2,13.3%
7,CC1CCc2c(sc(/N=C/c3cccnc3)c2C(N)=O)C1 (centres unmarked),12.2%
8,CC(C)CN(C(=O)COC(=O)c1ccc2c(c1)NC(=O)CS2)C1CCS(=O)(=O)C1 (centres unmarked),9.17%
9,CC(C)c1ccc(NC(=O)CNS(=O)(=O)c2ccc(F)cc2)cc1,7.51%
10,C=C1CCN([C@@H](CC(C)C)C(=O)O)S(=O)(=O)c2ccccc21,15.5%
11,COc1ccc(C2N(c3ccc4c(c3)OCCO4)C(=O)C2(F)F)cc1OC (centres unmarked),13.5%
12,CNC(=O)c1[nH]cnc1C(=O)N[C@@H](Cc1ccccc1)C(=O)OCc1ccccc1,10.6%
13,COc1ccc(CNC(=O)CNC(=O)[C@@H]2Cc3ccccc3CN2)cc1,28.5%
14,CC(C)Cn1c(N)c(C(=O)NCCN2CCOCC2)c2nc3ccccc3nc21,-71.5%
15,COc1ccccc1-n1c(-c2cn(C)nc2C)n[nH]c1=S,15.1%
16,Cc1ccc(C(=O)N/C(=C/c2cccc([N+](=O)[O-])c2)C(=O)NCC2CCCO2)cc1 (centres unmarked),-44.3%
17,COc1ccc(-c2nc(-c3ccccn3)ncc2S(C)(=O)=O)cc1,10.1%
18,Cc1ccc(-c2[nH]nc(N)c2N=Nc2ccccc2C)cc1,4.85%
